Test results reported in PubChem BioAssay AID1768 (National Center for Advancing Translational Sciences (NCATS), 2009).
“And” between values parts separate entries of the source, which are not always exact repeats. Identical values can stand only once. Among all 270,000 compounds or so, about 620 (0.23%) were called active. Inconclusive results, whose numbers are uncertain, are shown with a selection of clear calls. Calls follow the shape of the dose curve; as a rule, active = well fitted inhibition curve with a large enough effect in the polarisation, with a control signal flat (not every such curve was filed as active); inconclusive = small, poorly fitted or top-dose-only effect, or effect the other way, or a change in a side signal; inactive = no such curve, though single readings can be large or run the other way; the % refers to the polarisation. Where the call is inconclusive, the potency comes from a doubtful curve fit. A note “side channel” means that the fit belongs to a control or component signal, not to the main read-out.

What follows are molecules tested against Menin (Homo sapiens) (UniProt O00255) (assay: qHTS Assay for Inhibitors Targeting the Menin-MLL Interaction in MLL Related Leukemias: Competition With Texas Red Labeled MLL-derived Mutant Peptide). Conditions: fluorescence polarization; series mostly up to 61.6 µM.
UniProt O00255, sequence (O00255 whole entry, looked up): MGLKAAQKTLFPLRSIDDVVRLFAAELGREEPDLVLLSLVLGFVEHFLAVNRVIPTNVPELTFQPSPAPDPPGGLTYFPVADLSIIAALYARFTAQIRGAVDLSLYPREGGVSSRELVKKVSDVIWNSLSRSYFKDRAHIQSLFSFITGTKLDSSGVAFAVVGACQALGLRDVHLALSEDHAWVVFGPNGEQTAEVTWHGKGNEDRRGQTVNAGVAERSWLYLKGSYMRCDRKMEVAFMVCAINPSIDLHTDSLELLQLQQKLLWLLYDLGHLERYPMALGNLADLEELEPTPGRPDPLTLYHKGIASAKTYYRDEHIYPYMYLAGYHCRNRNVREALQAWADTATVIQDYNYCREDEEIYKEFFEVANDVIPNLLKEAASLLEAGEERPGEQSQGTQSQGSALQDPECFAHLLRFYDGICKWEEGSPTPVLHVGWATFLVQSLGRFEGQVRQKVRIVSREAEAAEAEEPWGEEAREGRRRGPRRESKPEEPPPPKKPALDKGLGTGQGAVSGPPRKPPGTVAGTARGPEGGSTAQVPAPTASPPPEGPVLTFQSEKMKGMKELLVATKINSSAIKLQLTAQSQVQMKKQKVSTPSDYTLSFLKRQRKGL
Potency is read from the fitted curve at half-maximal effect; tags tell the direction and shape of the fitted curve or compound fluorescence and quenching.

Q: For `Cc1[nH]c2ccccc2c1/C=C(\C#N)S(=O)(=O)c1ccccc1`, which Potency is on record?
A: Its Potency is inconclusive: 28.2 µM [quencher, side channel, partial curve].

Q: Which Potency does the source give for `CCOC(=O)C1CCCN(Cc2nc(N)nc(Nc3ccccc3)n2)C1` (stereo not given) here?
A: The Potency was “inactive”.

Q: With `N#Cc1c(SCC(=O)Nc2nccs2)nc2c(c1-c1ccco1)CCCC2` as the molecule, how does the Potency read?
A: The Potency was inconclusive: 10 µM [quencher, side channel, partial curve].

Q: Which Potency does the source give for `COc1cc(OC)cc(-c2nnc3n2N=C(c2cc(OC)ccc2OC)CS3)c1` here?
A: The Potency was inconclusive: 2.82 µM [inhibitor, full curve, poor fit].

Q: `Nc1c(Cl)ncnc1N/N=C/c1ccc2ccccc2n1` was tested. Which Potency did it give?
A: Its Potency is “inactive”.

Q: With `c1coc(-c2nc3nc4ccccc4n3nc2-c2ccco2)c1` as the molecule, how does the Potency read?
A: Its Potency is inconclusive: 28.2 µM [quencher, side channel, partial curve].

Q: `CCOc1ccc(C2=CSC3=NCCN23)cc1[N+](=O)[O-]` was tested. Which Potency did it give?
A: Its Potency is inconclusive: 0.708 µM [inhibitor, full curve].

Q: With `CN1CCN(c2nc(-c3ccccc3Cl)nc3ccccc23)CC1` as the molecule, how does the Potency read?
A: The Potency was “inactive”.

Q: `C=CCC(C)(O)c1ccc(OC)cc1` (stereo not given) was tested. Which Potency did it give?
A: Its Potency is “inactive”.

Q: Which Potency does the source give for `CC(C)C(=O)NC(c1ccccc1)c1cc([N+](=O)[O-])c2cccnc2c1O` (stereo not given) here?
A: The Potency was “inactive”.

Q: How did the Potency turn out when `CN=c1scc(C)n1/N=C/c1cc(Br)c(O)c(Br)c1` was run?
A: The Potency was inconclusive: 22.4 µM [quencher, side channel, partial curve].

Q: For `CC(=O)Oc1ccc(/C=N/NC2=NS(=O)(=O)c3ccccc32)cc1`, which Potency is on record?
A: The Potency was inconclusive: 39.8 µM [inhibitor, single point].

Q: Which Potency does the source give for `O=[N+]([O-])c1ccc(N2CCOCC2)cc1SCc1ccco1` here?
A: Its Potency is inconclusive: 39.8 µM [quencher, side channel, single point].

Q: For `Cc1ccc(S(=O)(=O)NCc2ccc3c(c2)cc(C)n3C)cc1`, which Potency is on record?
A: The Potency was inconclusive: 31.6 µM [fluorescent, side channel, single point].

Q: For `CCCCCc1nc2c(=O)n(C)c3ccccc3c2o1`, which Potency is on record?
A: Its Potency is inconclusive: 14.1 µM [inhibitor, partial curve, poor fit].

Q: Which Potency does the source give for `Cc1ccc(S(=O)(=O)Nc2ccccc2C(=O)NCc2cccnc2)cc1` here?
A: Its Potency is inconclusive: 5.01 µM [quencher, side channel, full curve, poor fit].

Q: With `O=C(NC1CCCC1)c1cnn2c(C(F)(F)F)cc(-c3ccco3)nc12` as the molecule, how does the Potency read?
A: Its Potency is “inactive”.

Q: `CC(c1nccs1)N(C)C(=O)c1ccc(OC2CCN(CCc3ccccc3)CC2)cc1` (stereo not given) was tested. Which Potency did it give?
A: Its Potency is inconclusive: 10 µM [inhibitor, partial curve].

Q: How did the Potency turn out when `Cc1ccc2nc(-c3ccc(NS(=O)(=O)c4ccc(F)cc4)cc3)sc2c1` was run?
A: The Potency was inconclusive: 17.8 µM [quencher, side channel, partial curve].

Q: How did the Potency turn out when `Cc1c(CCO)c(=O)n2c([nH]c3ccccc32)c1C#N` was run?
A: Its Potency is “inactive”.

Q: How did the Potency turn out when `COc1ccc(/C=C2\SC(=O)N(CC(=O)NNC(=O)c3ccccc3O)C2=O)cc1OC` was run?
A: The Potency was inconclusive: 39.8 µM [inhibitor, single point].

Q: With `COc1ccc(C2CC(c3ccc(C)cc3)=NN2C(=O)c2ccccc2)cc1` (stereo not given) as the molecule, how does the Potency read?
A: The Potency was inconclusive: 1.78 µM [fluorescent, side channel, full curve, poor fit].

Q: Which Potency does the source give for `COc1ccc(CCC(=O)N(C)CC(=O)Nc2ccc(N3CCOCC3)cc2)cc1` here?
A: Its Potency is “inactive”.

Q: For `Cn1[nH]c(CSc2ccc(Cl)cc2)cc1=O`, which Potency is on record?
A: The Potency was inconclusive: 20 µM [quencher, side channel, partial curve].

Q: For `O=C(NC(NC(=S)Nc1c(Cl)cccc1Cl)C(Cl)(Cl)Cl)OCc1ccccc1` (stereo not given), which Potency is on record?
A: Its Potency is inconclusive: 28.2 µM [inhibitor, single point].

Q: How did the Potency turn out when `Cc1c(NC(=S)N/N=C\c2ccccc2O)c(=O)n(-c2ccccc2)n1C` was run?
A: The Potency was “inactive”.

Q: `COc1ccc(NC(=O)CN2CCN(CC(=O)Nc3ccc(OC)cc3)CC2)cc1` was tested. Which Potency did it give?
A: Its Potency is “inactive”.

Q: Which Potency does the source give for `CC1C/C(=C/c2ccncc2)C(=O)/C(=C/c2ccncc2)C1` (stereo not given) here?
A: Its Potency is “inactive”.

Q: `Cc1cc(N2CCCC2)ccc1/C=C1/C(=O)N(C)C(=S)N1C` was tested. Which Potency did it give?
A: The Potency was active: 22.4 µM.

Q: With `COc1cc(/C=C(/C#N)c2ccc(F)cc2)ccc1Oc1ccc([N+](=O)[O-])cn1` as the molecule, how does the Potency read?
A: The Potency was inconclusive: 28.2 µM [quencher, side channel, single point].

Q: `CCOC(=O)C1CCCN(Cc2cc(=O)oc3cc(C)c(C)cc23)C1` (stereo not given) was tested. Which Potency did it give?
A: The Potency was inconclusive: 17.8 µM [fluorescent, side channel, partial curve].

Q: Which Potency does the source give for `Cc1sc(NC(=O)c2ccco2)nc1-c1ccccc1` here?
A: Its Potency is inconclusive: 22.4 µM [quencher, side channel, single point].

Q: For `Cc1c(C)c2c(c(C)c1O)CCC(C)(COc1ccc(CC3SC(=O)NC3=O)cc1)O2` (stereo not given), which Potency is on record?
A: Its Potency is inconclusive: 22.4 µM [quencher, side channel, partial curve] and inconclusive: 20 µM [quencher, side channel, partial curve] and inconclusive: 12.6 µM [quencher, side channel, partial curve].

Q: How did the Potency turn out when `O=C(Nc1ccc(-c2n[nH]c(=S)o2)cc1)c1ccccc1` was run?
A: Its Potency is inconclusive: 39.8 µM [quencher, side channel, single point].

Q: For `Cc1c(NC(=O)COC(=O)COc2ccc(Nc3ccccc3)cc2)c(=O)n(-c2ccccc2)n1C`, which Potency is on record?
A: The Potency was inconclusive: 3.55 µM [quencher, side channel, single point].

Q: Which Potency does the source give for `O=C(Nc1nccs1)c1ccc(-c2cccc([N+](=O)[O-])c2)o1` here?
A: Its Potency is inconclusive: 15.8 µM [quencher, side channel, partial curve].

Q: How did the Potency turn out when `Cc1cc(-n2c(SCC(=O)Nc3ccc(F)c(F)c3)nc3n[nH]c(C)c3c2=N)ccc1Cl` was run?
A: The Potency was inconclusive: 39.8 µM [fluorescent, single point].

Q: For `O=C(c1ccccc1SCc1ccc(F)cc1)N1CCOCC1`, which Potency is on record?
A: The Potency was inconclusive: 31.6 µM [fluorescent, side channel, single point].

Q: How did the Potency turn out when `COc1ccc(C2/C=C\CN(C(=O)c3ccc(C)cc3)C(C)C(=O)N2Cc2ccc(F)cc2)cc1` (stereo not given) was run?
A: The Potency was “inactive”.

Q: With `Cc1ccc(NS(=O)(=O)c2ccc(N3CCN(c4ccc(O)cc4)CC3)c([N+](=O)[O-])c2)c(C)c1` as the molecule, how does the Potency read?
A: The Potency was inconclusive: 12.6 µM [quencher, side channel, partial curve].
